Data as given in patent publication US20080220004A1 (published 2008).

Target: T1, human VEGF165 (human, UniProt P15692-4 27-191)
T1 sequence (looked up): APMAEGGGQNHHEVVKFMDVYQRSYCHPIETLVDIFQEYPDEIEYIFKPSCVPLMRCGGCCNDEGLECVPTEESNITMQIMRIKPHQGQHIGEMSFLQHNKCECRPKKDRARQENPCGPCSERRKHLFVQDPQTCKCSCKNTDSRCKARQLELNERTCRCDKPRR
Assay: ELISA of mouse sera on VEGF165-coated plates (pharmacokinetic detection)

binding result: binds
B1: Flt1D2.VEGFR3D3.FcΔC1(a) (Fc fusion)
chain: GRPFVEMYSEIPEIIHMTEGRELVIPCRVTSPNITVTLKKFPLDTLIPDGKRIIWDSRKGFIISNATYKEIGLLTCEATVNGHLYKTNYLTHRQTNTIIDIQLLPRKSLELLVGEKLVLNCTVWAEFNSGVTFDWDYPGKQAERGKWVPERRSQQTHTELSSILTIHNVSQHDLGSYVCKANNGIQRFRESTEVIVHENGPG[omitted - human IgG1 Fc]
notes: no signal peptide limits are stated; It was purified by the same methods as Flt1D2.Flk1D3.FcΔC1(a), whose dimer fraction was pooled; also called R1R3
